Test results as given in US12338279B2, “Selective and potent inhibitory antibodies of myostatin activation” (SCHOLAR ROCK, INC., priority 2022, dated 2025).
One block for each molecule: values may come before it.

Experiments:
[1] = tested on: biotinylated human pro-myostatin; assay: Biacore 8k SPR binding affinity, human pro-myostatin
Text: (§1) The Biacore™ 8 k SPR system was utilized to evaluate the binding affinity of myostatin antibodies to biotinylated human, murine, and cyno pro-myostatin. Biotin CAPture kit and sensor chips (Cytiva) were utilized in these experiments to immobilize the various antigens, followed by flowing a range of concentrations of each of the test antibodies.

[2] = tested on: Pro + Furin (pro-myostatin); assay: Functional ELISA: inhibition of myostatin activation, Pro + Furin; type: biochemical; conditions: Table 8
Protocol: To measure inhibitory potency of the novel antibodies against myostatin activation, an ELISA-based in vitro potency assay (“functional ELISA”) was carried out. First, each of the test antibodies was preincubated with recombinant human latent myostatin to let immune complexes form. Subsequently, mTLL-2 was added to the immune mixture to trigger the release of mature myostatin by proteolytic cleavage. If the test antibody is capable of blocking mTLL-2-induced activation, mature myostatin is not released from the latent myostatin complex. […] Following mTLL-2 treatment, the amount of free (released) mature myostatin in the presence of test antibodies was measured by ELISA, in which the plates were coated with ActRII-Fc fusion protein, which is a ligand trap serving as the capture reagent. Free mature myostatin present in the assay mixture was captured on the ELISA plate, and the amount of bound mature myostatin was measured by biotin-streptavidin-based detection reagents in 11 data points.

[3] = target: T1, biotinylated cyno pro-myostatin (Macaca fascicularis, UniProt Q95J86); assay: Biacore 8k SPR binding affinity, cyno pro-myostatin; set-up: species or system cynomolgus monkey
T1 construct: biotin (label)
Text: as §1

[4] = tested on: biotinylated murine pro-myostatin; assay: Biacore 8k SPR binding affinity, murine pro-myostatin; set-up: species or system mouse
Text: as §1

[5] = tested on: free latent myostatin in serum; assay: Serum free latent myostatin (not bound by antibody); type: in vivo, mouse; conditions: 0.1 to 3 mg/kg, 22 days, presence or absence of semaglutide; FIG. 16C
Text: Serum clearance: As used herein, the term “serum clearance” or “clearance” refers to a relative pharmacokinetic/pharmacodynamic behavior pertaining to changes in serum concentrations (e.g., circulating levels) of an analyte (e.g., target protein or protein complex) over time. When the analyte being measured accumulates in the serum, it is said to have slow clearance. By contrast, when the analyte being measured is removed (“cleared”) rapidly from the serum, it is said to have fast clearance. Serum clearance in vivo may occur via multiple mechanisms, including, for example, targeted degradation, Fc-mediated internalization, etc. For example, serum clearance of circulating myostatin may be measured with an assay for determining binding of an antibody to free myostatin in serum (circulating myostatin that is not bound by the antibody). Such an assay may involve immobilizing a biotinylated capture antibody known to bind pro and latent myostatin, before adding a sample comprising myostatin to test the ability of the antibody to bind to the free myostatin and adding a detection antibody with a detectable marker.
In another embodiment, a pharmacodynamic assay, can be performed by measuring the binding of the antibodies to serum free latent myostatin (i.e., circulating latent myostatin that is not bound by the antibody). […]
(§2) Male 19 week old C7/BL6 mice fed a high fat diet to induce obesity (DIO-B6-M mice, were evaluated for the effect of the combination of antibody and semaglutide on the exposure of the antibody to the target antigen (PK) and the total myostatin serum level (PD), as shown in Table 25. Animals were dosed with antibody intraperitoneally on days 0, 7, and 14 and were dosed with semaglutide subcutaneously daily throughout the study. Exposure of the antibody to immobilized promyostatin was determined by ELISA. Total serum myostatin was also measured by ELISA. The study concluded on day 22, when terminal bleeds were obtained.

[6] = tested on: male C57/BL6 mice on high fat diet; assay: Diet-induced obesity model, semaglutide with Ab109 or Ab141 (Example 5); type: in vivo, mouse; conditions: antibody once weekly plus 0.040 mg/kg semaglutide daily, three weeks; FIGS. 13A-B
Protocol: Male C57/BL6 mice were a high-fat diet containing 60% fat then switched to a diet containing 45% fat. […] Body weight and body composition determined by qNMR were recorded at days 7, 14, and 21 after dosing. Gastrocnemius weight, inguinal, and perigonadal fat pad weights were recorded at the end of the study. Liver and terminal blood were collected to measure the levels of glucose and insulin.

[7] = AC-SINS self-interaction (aggregation behavior); type: physicochemical; conditions: cutoff shift >5 nm in plasmon wavelength
Outline: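 Antibodies captured on gold nanoparticles coated with polyclonal anti-human-mAb antibodies; self-association shifts the plasmon absorbance maximum toward red. Value reported as plasmon wavelength, with 530 nm as unaggregated reference; shift >5 nm taken as self-interacting.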

[8] = tested on: total myostatin in serum; assay: Circulating total myostatin in serum (acidification ELISA), dexamethasone model; type: in vivo, mouse; conditions: as compared to apitegromab
Text: Briefly, serum samples were acidified at low pH (e.g., pH ˜2.5) to dissociate the bound antibody from the immune complex and to convert all myostatin in the sample to the active form of growth factor (i.e., mature myostatin). Samples were then neutralized and assayed for the presence of mature myostatin on ELISA plates coated with anti-mature myostatin antibodies as capture reagents.

[9] = tested on: total myostatin in serum; assay: Total serum myostatin (PD) in obese mice with or without semaglutide (Example 8); type: in vivo, mouse; conditions: 0.1 to 3 mg/kg, alone or with semaglutide; FIG. 16B
Protocol: as §2

Ka [1]: 3.58e+06 M⁻¹ s⁻¹
Kd [1]: 0.103 nM
Kd (1/s) [1]: 0.000371 s⁻¹
IC50 [2]: 0.318 nM
Ka (1/Ms) [3]: 4.01 E+06 1/Ms
Ka [4]: 3.29e+06 M⁻¹ s⁻¹
Kd (1/s) [4]: 0.000411 s⁻¹
B1: Ab125: anti-pro/latent myostatin antibody; CDRs in Tables 2d-f, variable domains Table 3, chains Table 4 (antibody)
heavy: EVQLVQSGAEVKKPGESLKISCKGSGNRISDYWMNWVRQVPGKGLEWMGNIYPGYSDATYNRKFKGQVTISADKSISTAYLQWSSLKASDTAIYYCARGRDGYNYFAAFDIWGQGTMVTVSSASTKGPSVFPLAPCSRSTSESTAALGCLVKDYFPEPVTVSWNSGALTSGVHTFPAVLQSSGLYSLSSVVTVPSSSLGTKTYTCNVDHKPSNTKVDKRV[human IgG4 Fc with S228P (EU numbers) left out]
light: EIVLTQSPATLSLSPGERATLSCRASQSVASSYLAWYQQKPGQAPRLLIYDTSSRAAGIPARFSGSGSGTDFTLTISSLEPEDFAVYYCHQYGSSLTTFGGGTKVEIKRTVAAPSVFIFPPSDEQLKSGTASVVCLLNNFYPREAKVQWKVDNALQSGNSQESVTEQDSKDSTYSLSSTLTLSKADYEKHKVYACEVTHQGLSSPVTKSFNRGEC

Ka [1]: 1.54e+06 M⁻¹ s⁻¹
Kd [1]: 1.84 nM
Kd (1/s) [1]: 0.000285 s⁻¹
IC50 [2]: 1.08 nM
Ka [4]: 139000 M⁻¹ s⁻¹
Kd (1/s) [4]: 0.000454 s⁻¹
B2: Ab124: anti-pro/latent myostatin antibody; CDRs in Tables 2d-f, variable domains Table 3, chains Table 4 (antibody)
heavy: QVQLQESGPGLVKPSQTLSLTCTVSGGSISSSPYSWSWIRQPPGKGLEWIGYVDLAGSTDYNPSLKSRVTMSVDTSKNQFSLKVNSVTAADTAVYYCARALSSRSSEWLLDQYTMDVWGQGTTVTVSSASTKGPSVFPLAPCSRSTSESTAALGCLVKDYFPEPVTVSWNSGALTSGVHTFPAVLQSSGLYSLSSVVTVPSSSLGTKTYTCNVDHKPSNTKVDKRV[human IgG4 Fc with S228P (EU numbers) left out]
light: EIVMTQSPATLSLSPGERATLSCRASQSIGINLAWYQQKPGQAPRLLIYGVSNRATGIPARFSGSGSGTDFTLTISSLEPEDFAVYYCQQYGTARLTFGGGTKVEIKRTVAAPSVFIFPPSDEQLKSGTASVVCLLNNFYPREAKVQWKVDNALQSGNSQESVTEQDSKDSTYSLSSTLTLSKADYEKHKVYACEVTHQGLSSPVTKSFNRGEC

Ka [1]: 2.79e+06 M⁻¹ s⁻¹
Kd (1/s) [1]: 0.000112 s⁻¹
Ka [3]: 2.8e+06 M⁻¹ s⁻¹
Kd [3]: 0.000103 s⁻¹
Ka [4]: 2.93e+06 M⁻¹ s⁻¹
Kd (1/s) [4]: 0.000156 s⁻¹
B3: Ab141: anti-pro/latent myostatin antibody; CDRs in Tables 2d-f, variable domains Table 3, chains Table 4 (antibody)
heavy: EVQLVESGGGLVQPGGSLRLSCAASGFTFSSYGMSWVRQAPGKGLELVASFTGSGGAYYPDSVKGRFTISRDNAKNSLYLQMNSLRAEDTAVYYCARDLLIRFLEWSHYYGMDVWGQGTTVTVSSASTKGPSVFPLAPCSRSTSESTAALGCLVKDYFPEPVTVSWNSGALTSGVHTFPAVLQSSGLYSLSSVVTVPSSSLGTKTYTCNVDHKPSNTKVDKRV[human IgG4 Fc with S228P (EU numbers) left out]
light: DIVMTQSPLSLPVTPGEPASISCRSSQSLLHSSGHNFLHWYLQKPGQSPQLLIYEVSNRVSGVPDRFSGSGSGTDFTLKISRVEAEDVGVYYCMQQTQYPGTFGGGTKVEIKRTVAAPSVFIFPPSDEQLKSGTASVVCLLNNFYPREAKVQWKVDNALQSGNSQESVTEQDSKDSTYSLSSTLTLSKADYEKHKVYACEVTHQGLSSPVTKSFNRGEC
serum free latent myostatin (not bound by antibody) [5]: reduced below the level of quantitation
fat mass loss (subcutaneous and epididymal adipose tissue weight) [6]: increased fat mass loss as compared to Ab109 or Ab141 alone
aggregation behavior by AC-SINS [7]: did not display aggregation behavior
accumulation of total or latent myostatin in serum samples from dosed subjects [8]: reduced accumulation of circulating latent myostatin
serum total myostatin (PD) [9]: not affected by the presence of semaglutide
